In patent publication US20220307010A1 (TWIST BIOSCIENCE, published 2022):

Biological target: T1, TIGIT (T cell immunoreceptor with Ig and ITIM domains) (human, UniProt Q495A1 22-141, limits assumed)
T1 construct: also called hTIGIT; human TIGIT
T1 sequence (looked up): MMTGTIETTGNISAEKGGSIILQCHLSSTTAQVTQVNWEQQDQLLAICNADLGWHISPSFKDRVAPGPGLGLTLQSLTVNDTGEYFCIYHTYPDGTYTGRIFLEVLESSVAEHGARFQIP
Test: SPR, VHH-Fc

- koff: 1 s⁻¹
- kon: 1e+09 M⁻¹ s⁻¹
B1: TIGIT-30-5 VHH-Fc (Fc fusion)
chain: EVQLVESGGGLVQAGGSLRLSCAASGGTFRNYGMGWFRQAPGKERELVAAISWSGVSTIYADSVKGRFTISADNAKNTVYLQMNSLKPEDTAVYYCASSPYGPLYRSTHYYDWGQGTQVTVSSGGGGS[skipping human IgG1 Fc with C220S (EU numbers)]
